# T1: CD86Ig (UniProt P42081 24-247)
# T1 construct: Immobilized on the BIAcore chip; also called soluble CD86Ig
# T1 sequence (looked up): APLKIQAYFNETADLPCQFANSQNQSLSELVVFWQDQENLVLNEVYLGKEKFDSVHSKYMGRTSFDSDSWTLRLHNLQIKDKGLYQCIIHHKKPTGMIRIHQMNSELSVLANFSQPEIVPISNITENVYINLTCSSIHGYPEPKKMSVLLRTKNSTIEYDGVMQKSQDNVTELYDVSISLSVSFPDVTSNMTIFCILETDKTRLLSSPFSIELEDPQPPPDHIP
# Target: T1, CD86Ig
# Test: SPR screening of COS culture media over immobilized CD86Ig
# Experimental: COS cells were transfected with individual miniprep purified plasmid DNA and propagated for several days. […] All experiments were run on BIAcore™ or BIAcore™ 2000 biosensors at 25° C.
row,fold slower “off” rate than wild type CTLA4Ig,Binder
1,~4 fold,"L104EA29L (Fc fusion, extracellular domain;domain: hinge, CH2 and CH3 regions of IgC1; Mutant CTLA4Ig tested unpurified in COS cell culture medium) MHVAQPAVVLASSRGIASFVCEYASPGKLTEVRVTVLRQADSQVTEVCAATYMMGNELTFLDDSICTGTSSGNQVNLTIQGLRAMDTGLYICKVELMYPPPYYEGIGNGTQIYVIDPEPCPDSDQ[… human IgG1 Fc …]"
2,~4 fold,"L104EA29T (Fc fusion, extracellular domain;domain: hinge, CH2 and CH3 regions of IgC1; Mutant CTLA4Ig tested unpurified in COS cell culture medium) MHVAQPAVVLASSRGIASFVCEYASPGKTTEVRVTVLRQADSQVTEVCAATYMMGNELTFLDDSICTGTSSGNQVNLTIQGLRAMDTGLYICKVELMYPPPYYEGIGNGTQIYVIDPEPCPDSDQ[… human IgG1 Fc …]"
3,~4 fold,"L104EA29W (Fc fusion, extracellular domain;domain: hinge, CH2 and CH3 regions of IgC1; Mutant CTLA4Ig tested unpurified in COS cell culture medium) MHVAQPAVVLASSRGIASFVCEYASPGKWTEVRVTVLRQADSQVTEVCAATYMMGNELTFLDDSICTGTSSGNQVNLTIQGLRAMDTGLYICKVELMYPPPYYEGIGNGTQIYVIDPEPCPDSDQ[… human IgG1 Fc …]"

# Reference: US20020039577A1 (published 2002)
